# PubChem BioAssay AID686971 (National Center for Advancing Translational Sciences (NCATS), 2013)
# In all, about 360,000 compounds went through this assay and about 7,500 (2.1%) were called active. The shares of active, inactive and inconclusive entries below differ from those in the screen. Calls come from the whole dose curve; as a rule, active = well fitted cell-killing curve with a large enough effect; inconclusive = small, poorly fitted or top-dose-only effect, or effect the other way, or another doubt; inactive = no such curve, though single readings can be large or run the other way. Potencies of inconclusive entries are left out as doubtful fits. Where a structure was tested more than once in an assay, its records may differ in their call.
# Assay: qHTS for induction of synthetic lethality in tumor cells producing 2HG: qHTS for the HT-1080-IDH1KD cell line;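 for activity, negative = toxicity: 0% = DMSO wells and -100% = cell-free medium wells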
# Settings: HT-1080 IDH1 knockdown viability, ATP luminescence, 48 h; activity, negative = toxicity: at 46.1 µM (top of the series) unless noted
# Summary of the method: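 In this qHTS, HT-1080 cells depleted of IDH1 are exposed for 48 h at 37 °C to compound titrations. Toxicity is scored from CellTiter-Glo luminescence, with DMSO as full viability and medium alone as none.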
# Potency is the fitted concentration of half-maximal effect; tags give direction and shape of the fitted curve.
SMILES,"activity, negative = toxicity",Potency
CC1CC(C)(C)NC(=S)O1 (stereo unspecified),inconclusive: 34%,
COc1cccc(C2CCCCN2Cc2nc(-c3ccc(C)o3)oc2C)c1 (stereo unspecified),,"inconclusive [rising, single point]"
O=C(NCC1CCCO1)c1cc2c(=O)[nH]c3ccccc3c2s1 (stereo unspecified),inactive: 4.49%,
COc1ccc(-c2cn3ccccc3n2)cc1,,"inconclusive [cytotoxic, single point]"
COc1ccccc1N/C=C/c1onc(C)c1[N+](=O)[O-],,"inconclusive [cytotoxic, single point]"
CCOC(=O)[C@]12CCCC=C1N(Cc1ccc3c(c1)OCO3)C(=O)[C@H](CC(=O)NCCC(C)C)C2,inactive: -7.2%,
CC(=O)N(CCc1ccccc1)c1ccc2c(c1)C1CC2CCN1C(=O)OCc1ccccc1 (stereo unspecified),,"inconclusive [cytotoxic, single point]"
Nc1nc(SCC(=O)c2ccc(Oc3ccccc3)cc2)n[nH]1,,"inconclusive [cytotoxic, single point]"
CCCc1cc(N2CCN(c3ccccn3)CC2)n2nc(C)c(-c3ccccc3)c2n1,inactive: 6.22%,
CCOCCCNC(=O)/C(C#N)=C/c1ccc([N+](=O)[O-])o1,,active: 7.31 µM
O=[N+]([O-])c1ccc(O)c(N=Cc2sc3ccccc3c2O)c1,,"inconclusive [cytotoxic, full curve, poor fit]"
CCCC(=O)N(CC(=O)Nc1sc(C)c(C)c1C(N)=O)Cc1ccccc1,inactive: 1.09%,
CCN(CC)c1ccc(-c2nn3c(-c4n[nH]c5c4CCC5)nnc3s2)cc1,,active: 2.31 µM
CCCCCC(=O)O[C@]1(C(C)=O)CC[C@H]2[C@@H]3CCC4=CC(=O)CC[C@]4(C)[C@H]3CC[C@@]21C,,"inconclusive [cytotoxic, single point]"
CCC(NC(=O)C(C)NC)C(=O)N1CCCC1C(=O)NC1CCCc2ccccc21 (stereo unspecified),inactive: -15.9%,
Cc1ccc(Cn2nc(C)c(NC(=O)c3cc(-c4ccc5c(c4)OCO5)on3)c2C)cc1,,"inconclusive [cytotoxic, single point]"
CCCN(CC(=O)Nc1ccccc1C)C(=O)COc1c(Cl)cccc1Cl,inactive: -6.72%,
Oc1cc2c(cc1O)CN(C(=S)NCCc1ccc(Cl)cc1)CCC2,,active: 39.8 µM
O=C(Nc1nc2ccccc2s1)C1c2ccccc2Oc2ccccc21,inactive: -28.3%,
COc1cccc(-c2nc(NCc3ccccc3)c3ccccc3n2)c1O,,"inconclusive [cytotoxic, partial curve]"
Cc1ccc(NC(=O)CCC(=O)N/N=C/c2ccc(O)cc2)cc1,,"inconclusive [cytotoxic, partial curve]"
